The supplement of paper PMC9446081
Among all 39,000 compounds or so, about 220 (0.56%) showed activity. The list shows a part of the results.
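Further: static incubation at 37 °C against the wild-type strain, values averaged over two biological replicates.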

The compounds below were run on Escherichia coli K-12 BW25113 (assay: relative growth (OD600 normalised to plate interquartile mean) (fraction); higher = less growth inhibition, active = 0.2 or less). Conditions: 50 µM; LB; incubation time: overnight (16-24 h).
`C[C@@H]1CN([C@H](C)CO)C(=O)c2cc(NC(=O)Cc3ccccc3)ccc2O[C@@H](C)CCCCO[C@H]1CN(C)C(=O)Nc1ccccc1` was tested, and the relative growth was inactive: 1. In the case of `C[C@@H]1CCCCO[C@@H](CN(C)S(=O)(=O)c2ccccc2)[C@H](C)CN([C@@H](C)CO)C(=O)c2cc(NC(=O)Nc3cccc4ccccc34)ccc2O1`, the relative growth is reported as inactive: 1.02. In the case of `Cc1noc(C)c1S(=O)(=O)N(C)C[C@H]1Oc2ccc(NC(=O)NC(C)C)cc2CC(=O)N([C@@H](C)CO)C[C@H]1C`, the relative growth is reported as inactive: 0.993. `C=CCNc1nc(C)nc(OC)n1` was tested, and the relative growth was inactive: 1.01. With `C[C@@H]1CN([C@H](C)CO)C(=O)c2cccc(NC(=O)c3ccncc3)c2O[C@@H]1CN(C)Cc1ccc(Oc2ccccc2)cc1` the relative growth was inactive: 0.988. With `CCOC(=O)C(CCc1ccccc1)NC1CCc2ccccc2N(CC(=O)O)C1=O.Cl` (stereo not given) the relative growth was inactive: 1.04. In the case of `Cc1sccc1-c1csc(N)n1`, the relative growth is reported as inactive: 0.996. `C[C@@H]1CCCCO[C@@H](CN(C)C(=O)Nc2ccc(C(F)(F)F)cc2)[C@H](C)CN([C@@H](C)CO)C(=O)c2cc(NS(=O)(=O)c3cccs3)ccc2O1` was tested, and the relative growth was inactive: 1. `C[C@@H]1CN([C@@H](C)CO)C(=O)Cc2cc(NC(=O)Nc3cccc4ccccc34)ccc2O[C@@H]1CN(C)C(=O)Nc1ccc(F)cc1` was tested, and the relative growth was inactive: 0.993. For `Cc1ccc(S[C@]2(C(=O)NCC(C)C)CC(=O)N(Cc3ccccc3C(F)(F)F)[C@@H]2c2ccc(CO)cc2)cc1`, the relative growth was inactive: 0.988. In the case of `C[C@@H]1CCCCO[C@H](CN(C)Cc2ccccc2)[C@H](C)CN([C@@H](C)CO)C(=O)c2cc(NS(=O)(=O)c3ccc(Cl)cc3)ccc2O1`, the relative growth is reported as inactive: 0.95. For `CC(C)NC(=O)Nc1ccc2c(c1)C(=O)N([C@H](C)CO)C[C@H](C)[C@H](CN(C)S(=O)(=O)c1cn(C)cn1)O2`, the relative growth was inactive: 0.892. With `C[C@H]1CCCCO[C@@H](CN(C)Cc2ccncc2)[C@@H](C)CN([C@@H](C)CO)C(=O)c2cc(NC(=O)NC3CCCCC3)ccc2O1` the relative growth was inactive: 1.01. For `CC(C)NC(=O)N(C)C[C@H]1Oc2ccc(NC(=O)NC3CCCCC3)cc2CC(=O)N([C@@H](C)CO)C[C@H]1C`, the relative growth was inactive: 1. With `COCC(=O)N[C@H]1C=C[C@H](CC(=O)N2CCCCC2)O[C@@H]1CO` the relative growth was inactive: 0.885. With `C[C@H]1CN([C@@H](C)CO)C(=O)c2cc(-c3cccc(C(=O)N(C)C)c3)cnc2O[C@@H]1CN(C)C(=O)Cc1ccccn1` the relative growth was inactive: 1. With `O=C(C[C@@H]1CC[C@@H]2[C@H](COC[C@@H](O)CN2C(=O)c2ccc3c(c2)OCO3)O1)NCCN1CCCCC1` the relative growth was inactive: 1.01. `COc1ccc([C@@H](N)c2ccccc2)cc1` was tested, and the relative growth was inactive: 0.977. In the case of `C[C@@H]1CN([C@@H](C)CO)C(=O)CCCn2nncc2CO[C@@H]1CN(C)C(=O)Nc1ccnc(N2CCOCC2)c1`, the relative growth is reported as inactive: 0.967. `C[C@H](CO)N1C[C@H](C)[C@H](CN(C)C(=O)Nc2ccccc2)Oc2c(NC(=O)c3cnccn3)cccc2C1=O` was tested, and the relative growth was inactive: 1.02. With `C[C@H]1CN([C@@H](C)CO)C(=O)c2c(c3ccccc3n2C)-c2ccccc2CO[C@H]1CN(C)Cc1ccc(O)cc1` the relative growth was inactive: 0.997. `O=S1(=O)NCC2(COC2)O1` was tested, and the relative growth was inactive: 1.01. For `Cc1ccc(S(=O)(=O)N(C)C[C@@H]2Oc3c(NS(=O)(=O)c4ccccc4)cccc3C(=O)N([C@H](C)CO)C[C@@H]2C)cc1`, the relative growth was inactive: 1.01. For `COc1ccc(S(=O)(=O)Nc2ccc3c(c2)C(=O)N([C@@H](C)CO)C[C@H](C)[C@H](CN(C)C(=O)Nc2cccc4ccccc24)OCCCC[C@@H](C)O3)cc1`, the relative growth was inactive: 1.02. In the case of `C[C@H]1CN([C@@H](C)CO)S(=O)(=O)c2ccc(C#Cc3cccnc3)cc2O[C@@H]1CN(C)C(=O)CN(C)C`, the relative growth is reported as inactive: 0.99. `O=C(C[C@@H]1CC[C@@H]2[C@H](COC[C@H](O)CN2C(=O)Nc2cccc(Cl)c2)O1)NCc1ccccc1F` was tested, and the relative growth was inactive: 1. With `CCOC(=O)CC1(C)NNC(=S)NN1` the relative growth was inactive: 1.03. For `C[C@@H]1CN([C@H](C)CO)C(=O)c2c(c3ccccc3n2C)-c2ccccc2CO[C@@H]1CN(C)C(=O)Nc1ccc(-c2ccccc2)cc1`, the relative growth was inactive: 1.03. `C[C@@H]1CN([C@H](C)CO)C(=O)c2cccc(NS(C)(=O)=O)c2O[C@H]1CN(C)C(=O)Nc1ccc(C(F)(F)F)cc1` was tested, and the relative growth was inactive: 0.982. In the case of `COc1ccc(NC(=O)N[C@@H]2CC[C@@H](CCNC(=O)CN3CCOCC3)O[C@H]2CO)cc1`, the relative growth is reported as inactive: 0.975. In the case of `Cc1noc(C)c1S(=O)(=O)Nc1ccc2c(c1)CC(=O)N([C@@H](C)CO)C[C@H](C)[C@@H](CN(C)Cc1ccc(Oc3ccccc3)cc1)O2`, the relative growth is reported as inactive: 0.999. For `Cc1ccc(S(=O)(=O)N(C)C[C@H]2Oc3ccc(NC(=O)CCN4CCOCC4)cc3C(=O)N([C@@H](C)CO)C[C@@H]2C)cc1`, the relative growth was inactive: 1.02. In the case of `C[C@@H]1CN([C@@H](C)CO)C(=O)c2cccc(NC(=O)Nc3ccc(C(F)(F)F)cc3)c2O[C@H]1CN(C)Cc1ccc(C(=O)O)cc1`, the relative growth is reported as inactive: 0.973. `C[C@H]1CN([C@@H](C)CO)C(=O)c2cc(NC(=O)Nc3ccc4c(c3)OCO4)ccc2O[C@H]1CN(C)C(=O)Nc1cccc2ccccc12` was tested, and the relative growth was inactive: 1.01. For `Cc1ccc(-c2ccc3c(c2)O[C@H](CN(C)Cc2cncnc2)[C@@H](C)CN([C@@H](C)CO)S3(=O)=O)cc1`, the relative growth was inactive: 1.01. With `Cc1ccc2c(Cl)cc(Cl)c(O)c2n1` the relative growth was inactive: 1.1. In the case of `COc1ccc2c3c([nH]c2c1)[C@H](CO)N(CC1CCCCC1)C[C@]13CN(C1)C(=O)Nc1cccc(c1)F`, the relative growth is reported as inactive: 1.02. `C[C@H]1CCCCO[C@H](CN(C)C(=O)c2ccccc2)[C@@H](C)CN([C@@H](C)CO)C(=O)c2cc(NC(=O)c3ccccc3)ccc2O1` was tested, and the relative growth was inactive: 1.03. With `C[C@@H]1CCCCO[C@H](CN(C)S(=O)(=O)c2ccccc2)[C@@H](C)CN([C@H](C)CO)C(=O)c2cc(NC(=O)Nc3ccc4c(c3)OCO4)ccc2O1` the relative growth was inactive: 1. In the case of `C[C@H](CO)N1C[C@H](C)[C@@H](CN(C)S(C)(=O)=O)Oc2ccc(NS(=O)(=O)c3ccc(Cl)cc3)cc2C1=O`, the relative growth is reported as inactive: 0.988. With `c1cn2c3c(n1)CCCc3c1cc(C3CCCCC3)ccc12` the relative growth was inactive: 1.06. In the case of `Cc1ccc(S(=O)(=O)N2C[C@@H](O)COC[C@@H]3O[C@@H](CC(=O)N[C@@H]4CCN(Cc5ccccc5)C4)CC[C@H]32)cc1`, the relative growth is reported as inactive: 1.02. In the case of `C[C@@H]1CCCCO[C@H](CN(C)Cc2ccc(C(=O)Nc3ccccc3N)cc2)[C@H](C)CN([C@H](C)CO)C(=O)c2cc(N(C)C)ccc2O1`, the relative growth is reported as inactive: 0.986. In the case of `Cc1noc(C)c1S(=O)(=O)Nc1ccc2c(c1)C(=O)N([C@H](C)CO)C[C@H](C)[C@H](CN(C)Cc1ccc(C(=O)Nc3ccccc3N)cc1)OCCCC[C@@H](C)O2`, the relative growth is reported as inactive: 0.903. In the case of `C[C@H](CO)N1C[C@H](C)[C@H](CN(C)C(=O)Cc2ccncc2)Oc2ncc(C#Cc3ccccc3F)cc2C1=O`, the relative growth is reported as inactive: 0.964. For `C[C@@H]1CN([C@H](C)CO)C(=O)c2cccc(NC(=O)C3CCCCC3)c2O[C@@H]1CN(C)Cc1ccc(-c2ccccc2)cc1`, the relative growth was inactive: 1.06. For `COc1ccc(S(=O)(=O)Nc2ccc3c(c2)C(=O)N([C@H](C)CO)C[C@@H](C)[C@@H](CN(C)Cc2ccc(Cl)c(Cl)c2)OCCCC[C@H](C)O3)cc1`, the relative growth was inactive: 0.975. With `C[C@@H]1CCCCO[C@@H](CN(C)C(=O)Cc2ccccc2)[C@H](C)CN([C@@H](C)CO)C(=O)c2cc(NC(=O)CCC(F)(F)F)ccc2O1` the relative growth was inactive: 0.971. With `C[C@H](CO)N1C[C@H](C)[C@@H](CN(C)S(=O)(=O)c2cn(C)cn2)Oc2c(NC(=O)C3CCOCC3)cccc2C1=O` the relative growth was inactive: 0.921. In the case of `C[C@H]1CN([C@@H](C)CO)C(=O)c2cccc(NS(=O)(=O)c3ccccc3)c2O[C@H]1CN(C)Cc1ccc(-c2ccccc2)cc1`, the relative growth is reported as inactive: 0.98. For `OC[C@H]1NC[C@@H](O)[C@@H](O)[C@@H]1O`, the relative growth was inactive: 0.918. In the case of `C[C@H](CO)N1C[C@H](C)[C@H](CN(C)Cc2ccncc2)OCCCC[C@H](C)Oc2ccc(NC(=O)NC3CCCCC3)cc2C1=O`, the relative growth is reported as inactive: 1.02. In the case of `Cc1noc(C)c1S(=O)(=O)Nc1ccc2c(c1)C(=O)N([C@H](C)CO)C[C@H](C)[C@H](CN(C)S(=O)(=O)c1cn(C)cn1)OCCCC[C@@H](C)O2`, the relative growth is reported as inactive: 1.02. `C[C@H](CO)N1C[C@H](C)[C@H](CN(C)Cc2ccc(Oc3ccccc3)cc2)Oc2c(NC(=O)C3CCOCC3)cccc2C1=O` was tested, and the relative growth was inactive: 0.992. For `C[C@@H]1CN([C@@H](C)CO)C(=O)CCCn2nncc2CO[C@H]1CN(C)S(C)(=O)=O`, the relative growth was inactive: 0.975. `Cc1noc(C)c1NC(=O)N(C)C[C@H]1OCCCC[C@H](C)Oc2ccc(NS(=O)(=O)c3ccccc3)cc2C(=O)N([C@@H](C)CO)C[C@@H]1C` was tested, and the relative growth was inactive: 1. `Cn1cnc(S(=O)(=O)N[C@@H]2CC[C@@H](CC(=O)N3CCN(c4ccccc4)CC3)O[C@H]2CO)c1` was tested, and the relative growth was inactive: 1.01. With `C[C@H](CO)N1C[C@H](C)[C@@H](CN(C)CC2CCCCC2)Oc2ccc(NC(=O)Cc3cn(C)c4ccccc34)cc2CC1=O` the relative growth was inactive: 0.997. With `COc1ccc(NC(=O)Nc2ccc3c(c2)[C@H]2C[C@H](CC(=O)NCc4ccncc4)O[C@H](CO)[C@H]2O3)cc1` the relative growth was inactive: 0.977. `COCC(=O)Nc1ccc2c(c1)OC[C@@H](C)N(Cc1ccccc1F)C[C@@H](C)[C@H](OC)CN(C)C2=O` was tested, and the relative growth was inactive: 1.01.
